In US20260013501A1, “HERBICIDAL DERIVATIVES” (SYNGENTA CROP PROTECTION AG, priority 2022, published 2026):
The name of at least one read-out is uncertain.

Tests used:
Format in all cases: in vivo
Details in all cases: evaluated after 13 days
[1] = system: Ipomoea hederacea (IPOHE); experiment: Pre-emergence Test (Table B1), IPOHE
[2] = system: Zea mays (ZEAMX); experiment: Pre-emergence Test (Table B1), ZEAMX
[3] = system: Setaria faberi (SETFA); experiment: Post-emergence Test (Table B2), SETFA; parameters: key: five-point scale: 5=81-100%, 4=61-80%, 3=41-60%, 2=21-40%, 1=0-20% damage
How it was run: (§1)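 Evaluation 13 days post-spray gives percent plant damage, reported in five 20% bands (1=0-20% up to 5=81-100%). Test species, sown in soil and kept at 24/16 °C day/night with 14 h light, are treated with compound in 50:50 acetone/water plus 0.5% Tween 20, applied per g/ha.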

[4] = system: Amaranthus palmeri (AMAPA); experiment: Post-emergence Test (Table B2), AMAPA; parameters: key: five-point scale: 5=81-100%, 4=61-80%, 3=41-60%, 2=21-40%, 1=0-20% damage
How it was run: as §1

[5] = system: Zea mays (ZEAMX); experiment: Post-emergence Test (Table B2), ZEAMX; parameters: key: 5-point damage scale: 5=81-100%, 4=61-80%, 3=41-60%, 2=21-40%, 1=0-20%
How it was run: as §1

[6] = system: Setaria faberi (SETFA); experiment: Pre-emergence Test (Table B1), SETFA
[7] = system: Amaranthus retoflexus (AMARE); experiment: Pre-emergence Test (Table B1), AMARE
[8] = system: Echinochloa crus-galli (ECHCG); experiment: Pre-emergence Test (Table B1), ECHCG
[9] = system: Ipomoea hederacea (IPOHE); experiment: Post-emergence Test (Table B2), IPOHE; parameters: key: five-point scale: 5=81-100%, 4=61-80%, 3=41-60%, 2=21-40%, 1=0-20% damage
How it was run: as §1

[10] = system: Amaranthus retoflexus (AMARE); experiment: Post-emergence Test (Table B2), AMARE; parameters: key: five-point scale: 5=81-100%, 4=61-80%, 3=41-60%, 2=21-40%, 1=0-20% damage
How it was run: as §1

[11] = system: Echinochloa crus-galli (ECHCG); experiment: Post-emergence Test (Table B2), ECHCG; parameters: key: 5-point damage scale: 5=81-100%, 4=61-80%, 3=41-60%, 2=21-40%, 1=0-20%
How it was run: as §1

[12] = system: Amaranthus palmeri (AMAPA); experiment: Pre-emergence Test (Table B1), AMAPA

| Compound | Pre-emergence Test, percentage damage caused to the plant (five-point scale), IPOHE ([1]; Rate 1000 g/Ha) | Pre-emergence Test, percentage damage caused to the plant (five-point scale), ZEAMX ([2]; Rate 1000 g/Ha) | percentage damage caused to the plant, AMAPA ([4]; rate 1000 g/Ha) | percentage damage caused to the plant, ZEAMX ([5]; rate 1000 g/Ha) | Pre-emergence Test, percentage damage caused to the plant (five-point scale), SETFA ([6]; Rate 1000 g/Ha) | Pre-emergence Test, percentage damage caused to the plant (five-point scale), AMARE ([7]; Rate 1000 g/Ha) | Pre-emergence Test, percentage damage caused to the plant (five-point scale), ECHCG ([8]; Rate 1000 g/Ha) | percentage damage caused to the plant, IPOHE ([9]; rate 1000 g/Ha) | percentage damage caused to the plant, AMARE ([10]; rate 1000 g/Ha) | percentage damage caused to the plant, ECHCG ([11]; rate 1000 g/Ha) | Pre-emergence Test, percentage damage caused to the plant (five-point scale), ZEAMX ([2]; Rate 250 g/Ha) | Pre-emergence Test, percentage damage caused to the plant (five-point scale), AMAPA ([12]; Rate 250 g/Ha) | percentage damage caused to the plant, AMAPA ([4]; rate 250 g/Ha) | percentage damage caused to the plant, IPOHE ([9]; rate 250 g/Ha) | percentage damage caused to the plant, AMARE ([10]; rate 250 g/Ha) | percentage damage caused to the plant, SETFA ([3]; rate 250 g/Ha) | Pre-emergence Test, percentage damage caused to the plant (five-point scale), SETFA ([6]; Rate 250 g/Ha) | Pre-emergence Test, percentage damage caused to the plant (five-point scale), AMARE ([7]; Rate 250 g/Ha) | Pre-emergence Test, percentage damage caused to the plant (five-point scale), ECHCG ([8]; Rate 250 g/Ha) | percentage damage caused to the plant, ECHCG ([11]; rate 250 g/Ha) | further results |
| --- | --- | --- | --- | --- | --- | --- | --- | --- | --- | --- | --- | --- | --- | --- | --- | --- | --- | --- | --- | --- | --- |
| CCn1c(Cc2ncc(Cl)cn2)cc(=O)c(C(=O)O)c1-c1ccc(Cl)c(Cl)c1 [Compound 4, 6-[(5-chloropyrimidin-2-yl)methyl]-2-(3,4-dichlorophenyl)-1-ethyl-4-oxo-pyridine-3-carboxylic acid] | 1 (1=0-20%) | 2 (2=21-40%) | 2 (2=21-40%) | 4 (4=61-80%) | 5 (5=81-100%) | 1 (1=0-20%) | 4 (4=61-80%) | 3 (3=41-60%) | 2 (2=21-40%) | 3 (3=41-60%) |  |  |  |  |  |  |  |  |  |  | percentage damage caused to the plant, SETFA ([3]; rate 1000 g/Ha): 4 (4=61-80%) |
| CCn1c(Cc2ccccc2C(F)(F)F)cc(=O)c(C(=O)O)c1-c1ccc(Cl)c(Cl)c1 [Compound 11, 2-(3,4-dichlorophenyl)-1-ethyl-4-oxo-6-[[2-(trifluoromethyl)phenyl]methyl]pyridine-3-carboxylic acid] |  |  |  |  |  |  |  |  |  |  | 1 (1=0-20%) | 1 (1=0-20%) | 1 (1=0-20%) | 1 (1=0-20%) | 1 (1=0-20%) |  |  |  |  |  |  |
| CCn1c(Cc2ccccc2Cl)cc(=O)c(C(=O)O)c1-c1ccc(Cl)c(Cl)c1 [Compound 16, 6-[(2-chlorophenyl)methyl]-2-(3,4-dichlorophenyl)-1-ethyl-4-oxo-pyridine-3-carboxylic acid] |  | 1 (1=0-20%) |  |  | 1 (1=0-20%) | 1 (1=0-20%) |  | 1 (1=0-20%) |  |  |  |  |  |  |  |  |  |  |  |  | Pre-emergence Test, percentage damage caused to the plant (five-point scale), AMAPA ([12]; Rate 1000 g/Ha): 1 (1=0-20%) |
| CCn1c(Cc2cccc(C(F)(F)F)n2)cc(=O)c(C(=O)O)c1-c1ccc(Cl)c(Cl)c1 [Compound 39, 2-(3,4-dichlorophenyl)-1-ethyl-4-oxo-6-[[6-(trifluoromethyl)-2-pyridyl]methyl]pyridine-3-carboxylic acid] | 2 (2=21-40%) | 3 (3=41-60%) | 4 (4=61-80%) | 4 (4=61-80%) |  | 1 (1=0-20%) | 5 (5=81-100%) | 3 (3=41-60%) | 3 (3=41-60%) | 4 (4=61-80%) |  |  |  |  |  |  |  |  |  |  |  |
| CCn1c(Cc2ccc(S(C)(=O)=O)cc2)cc(=O)c(C(=O)O)c1-c1ccc(Cl)c(Cl)c1 [Compound 72, 2-(3,4-dichlorophenyl)-1-ethyl-6-[(4-methylsulfonylphenyl)methyl]-4-oxo-pyridine-3-carboxylic acid] |  |  |  |  |  |  |  |  |  |  | 1 (1=0-20%) | 2 (2=21-40%) | 1 (1=0-20%) | 3 (3=41-60%) | 1 (1=0-20%) | 2 (2=21-40%) | 1 (1=0-20%) | 1 (1=0-20%) |  |  |  |
| CCn1c(Cc2ccc(C)c(Cl)n2)cc(=O)c(C(=O)O)c1-c1ccc(Cl)c(Cl)c1 [Compound 97, 6-[(6-chloro-5-methyl-2-pyridiyl)methyl]-2-(3,4-dichlorophenyl)-1-ethyl-4-oxo-pyridine-3-carboxylic acid] | 3 (3=41-60%) | 1 (1=0-20%) | 3 (3=41-60%) | 3 (3=41-60%) | 4 (4=61-80%) |  | 3 (3=41-60%) | 4 (4=61-80%) | 4 (4=61-80%) | 4 (4=61-80%) |  |  |  |  |  |  |  |  |  |  | percentage damage caused to the plant, SETFA ([3]; rate 1000 g/Ha): 4 (4=61-80%) |
| CCn1c(Cc2nc(Cl)ccc2COC)cc(=O)c(C(=O)O)c1-c1ccc(Cl)c(Cl)c1 [Compound 105, 6-[[6-chloro-3-(methoxymethyl)-2-pyridyl]methyl]-2-(3,4-dichlorophenyl)-1-ethyl-4-oxo-pyridine-3-carboxylic acid] |  |  |  |  |  |  |  |  |  |  | 1 (1=0-20%) |  | 1 (1=0-20%) | 3 (3=41-60%) | 1 (1=0-20%) | 2 (2=21-40%) | 1 (1=0-20%) |  | 1 (1=0-20%) | 3 (3=41-60%) | Pre-emergence Test, percentage damage caused to the plant (five-point scale), IPOHE ([1]; Rate 250 g/Ha): 1 (1=0-20%); percentage damage caused to the plant, ZEAMX ([5]; rate 250 g/Ha): 1 (1=0-20%) |
| CCn1c(Cc2cccc(C(C)=O)n2)cc(=O)c(C(=O)O)c1-c1ccc(Cl)c(Cl)c1 [Compound 116, 6-[(6-acetyl-2-pyridyl)methyl]-2-(3,4-dichlorophenyl)-1-ethyl-4-oxo-pyridine-3-carboxylic acid] |  |  |  |  |  |  |  |  |  |  | 1 (1=0-20%) | 1 (1=0-20%) |  | 4 (4=61-80%) | 1 (1=0-20%) | 2 (2=21-40%) | 3 (3=41-60%) | 1 (1=0-20%) | 1 (1=0-20%) | 1 (1=0-20%) | percentage damage caused to the plant, ZEAMX ([5]; rate 250 g/Ha): 2 (2=21-40%) |
| CCn1c(Cc2ccc(Cl)nc2)cc(=O)c(C(=O)O)c1-c1ccc(Cl)c(Cl)c1 [Compound 129, 6-[(6-chloro-3-pyridyl)methyl]-2-(3,4-dichlorophenyl)-1-ethyl-4-oxo-pyridine-3-carboxylic acid] |  |  |  |  |  |  |  |  |  |  | 1 (1=0-20%) |  | 2 (2=21-40%) | 3 (3=41-60%) | 2 (2=21-40%) | 3 (3=41-60%) | 1 (1=0-20%) | 1 (1=0-20%) | 1 (1=0-20%) | 1 (1=0-20%) | Pre-emergence Test, percentage damage caused to the plant (five-point scale), IPOHE ([1]; Rate 250 g/Ha): 2 (2=21-40%) |
| CCn1c(Cc2cccc(C(C)F)n2)cc(=O)c(C(=O)O)c1-c1ccc(Cl)c(Cl)c1 (centres unmarked) [Compound 147, 2-(3,4-dichlorophenyl)-1-ethyl-6-[[6-(1-fluoroethyl)-2-pyridyl]methyl]-4-oxo-pyridine-3-carboxylic acid] |  |  |  |  |  |  |  |  |  |  | 1 (1=0-20%) |  | 1 (1=0-20%) | 4 (4=61-80%) | 2 (2=21-40%) | 3 (3=41-60%) | 4 (4=61-80%) | 1 (1=0-20%) | 2 (2=21-40%) | 3 (3=41-60%) | Pre-emergence Test, percentage damage caused to the plant (five-point scale), IPOHE ([1]; Rate 250 g/Ha): 3 (3=41-60%); percentage damage caused to the plant, ZEAMX ([5]; rate 250 g/Ha): 3 (3=41-60%) |
